Data published in publication PMC12136788.
The other results are listed elsewhere or left out.

B1: chr13:32776882:32776983:+|3pUTR|ENSG00000083642|unk|total|mutant (ssRNA)
RNA: GGGAGUUCUACAGUCCGACGAUCAAAGUGUUUUGAAUUGUGUCUUAAUCUCUCCAUAUUCAACUAUUCUUCAUUUACAACAACCGUGACACCAGUAAUUAUGAGAGGCUGUCAUAUAUCAAAGCAGCUCAGGUGGGAUCAACACAACAGAGGAUUGAGCAUCA
B2: chr3:23980279:23980388:+|3pUTR|ENSG00000174738|unk|total|mutant (ssRNA)
RNA: GGGAGUUCUACAGUCCGACGAUCUUUUUCUUUUCCAAUAUAAAGUUUGCUGAAUGUACAAGAAGAGUUUAUCACUCCGGAUACCGAAUUUUUUCCGGGGUUGGGGGAGGGGAUCUGUCCGGAAACUGUUACCUAUAAACAAAGCAACAGAGGAUUGAGCAUCA
B3: chr3:122573770:122573871:+|3pUTR|ENSG00000163840|msi1|total|mutant (ssRNA)
RNA: GGGAGUUCUACAGUCCGACGAUCUAUUGGGUGCACUUGCCCUGCCACAGUAAUGCUAUAUAUUUCUGAGCAUUGUUUUUCUCCCGAUAAUUUUAUAUUUUUGAGUAUACCCCACUUCCAAGUGUUUUUUGUUUUGUUUUGCUUCAACAGAGGAUUGAGCAUCA
B4: chr10:50305585:50307321:-|three_prime_utr|ENSG00000198964|control|control|control (ssRNA)
RNA: GGGAGUUCUACAGUCCGACGAUCUGAAAAGAAUGUCCAAGGAAUUGUACCUCGAUCUUACCAUUGGCCUUUCCCCUGGCCAGUAGUCCACCUCAGUAGGCAAGUUAAAUACAGCCGGCUGGUGAAUGACACAUAACAGCUGUACAACAGAGGAUUGAGCAUCA
B5: chr7:7607225:7607326:+|3pUTR|ENSG00000164654|msi1|total|mutant (ssRNA)
RNA: GGGAGUUCUACAGUCCGACGAUCUUUGAGUGAUUUUGAUAUGCUUCACAGAGACAAAUGCUGCCAAAAUAAACAUCGAAGUACCGACAUGAGUUCUGUUCAGCAGGUUGAAAAGUCUGAUUCCGAAAAACUUUCUAAGUUUUGCAACAGAGGAUUGAGCAUCA
B6: ENSG00000134243:stop:overlap|stop_codon|ENSG00000134243|stop_codon|NA|stop_codon (ssRNA)
RNA: GGGAGUUCUACAGUCCGACGAUCCAGCCUCCCACACUAAUAAAAGUGGUUAUCAUGAUGACUCAGAUGAGGACCUCUUGGAAUAGCUCUUCAGAGGAGCUGGACCCAGCAUGGAUGGUGGAACCACAGUACCUCUUACACUCCCAACAGAGGAUUGAGCAUCA
B7: chr2:30158716:30158817:+|CDS|ENSG00000119801|msi1|FALSE|bound_elsewhere (ssRNA)
RNA: GGGAGUUCUACAGUCCGACGAUCGUUUGCCACUGAAGACAGCCAGCGAUAUAAGGAAGGCCGCGUGAUCCUGGAACGUGCUCUAGUUCGAGAGAGUGAGGGCUUUGAGGAGCAUGUACCAUCUGAUAACUCUUGAAGAUACAGCAACAGAGGAUUGAGCAUCA
B8: chr16:11691289:11692082:-|CDS|ENSG00000153066|control|control|control (ssRNA)
RNA: GGGAGUUCUACAGUCCGACGAUCCCAAGCUCCGUUCCUCACAUUGAGGAGAACAGGUAUCUCUUUCCAGAAGUGGACAUGACUAGCACAAACUUCACAGGCCUGAGCUGCAGAACCAACAAGACUCUCAACAUCUACCUUUUGCAACAGAGGAUUGAGCAUCA
B9: chr10:37831617:37833116:-|CDS|ENSG00000198105|control|control|control (ssRNA)
RNA: GGGAGUUCUACAGUCCGACGAUCCAUCAGAGGACUCACACAGGGGAGAAGCCGUAUGAGUGUAAUGCAUGUGGGAAGACCUUUAGUCAGAGGUCAGUGCUCACCAAACAUCAGAGAAUUCACACAAGGGUGAAAGCUCUUUCACAACAGAGGAUUGAGCAUCA
B10: chr3:52708059:52708100:+|3pUTR|ENSG00000114902|msi1_unk|FALSE|overlapping (ssRNA)
RNA: GGGAGUUCUACAGUCCGACGAUCACACAAGUAUGAAGUUUCUUUCAGGUGUAAAUAAUGAAAAAUAAAUGCCUCAUAAAUGAUAGUACAAUGUAACUAUCAAAGUUUUAUAAUUCAUUAUGAGUUAACCAUUUUAAUGUUUCCCAACAGAGGAUUGAGCAUCA
B11: chr19:33301014:33301115:-|3pUTR|ENSG00000245848|unk|FALSE|unique (ssRNA)
RNA: GGGAGUUCUACAGUCCGACGAUCUCCCUGCGAGGAGGGGAGAAUUCUUGGGGCUGAGCUGGGAGCCCGGCAACUCUAGUAUUUAGGAUAACCUUGUGCCUUGGAAAUGCAAACUCACCGCUCCAAUGCCUACUGAGUAGGGGGCAACAGAGGAUUGAGCAUCA
B12: chr16:2602459:2602560:+|3pUTR|ENSG00000140992|msi1|total|mutant (ssRNA)
RNA: GGGAGUUCUACAGUCCGACGAUCAACUAUGUACAGAGAACUUUUUACAAAAGGCAGACCUUUUUUAAGCUGUGUAACCCACACCGCCUAACCACCUGGCAGAAUGACUACGAACCGGGGUCAUUGUGCUGGUAAAAGCCUCUACAACAGAGGAUUGAGCAUCA
B13: chr15:78283234:78283431:-|three_prime_utr|ENSG00000140395|control|control|control (ssRNA)
RNA: GGGAGUUCUACAGUCCGACGAUCUCUCCAGGCUUAUGCUGCAAAGAGAAUGUACGGAUUGAUCAUGACAUUCCUUACCUUCUUAGGCUUGUUUAAAAGAAAUAUAGCAUUUAUUGUAGCAAAGACUUAAAUUUUGUAGAUACACAACAGAGGAUUGAGCAUCA
B14: chr16:70532473:70532607:+|CDS|ENSG00000189091|unk|FALSE|bound_elsewhere (ssRNA)
RNA: GGGAGUUCUACAGUCCGACGAUCCAAUGAUCCAACAGGGGAAGCAGCAGCUAAUACCCAGCAGACACUUACUUUCUAUGAGCUAGACCUUGGUUUAAAUCAUGUGGUCCGAAAAUACAGUGAACCUUUGGAGGAACACGGCAACAACAGAGGAUUGAGCAUCA

Biological target: MSI1 full-length (mouse, UniProt Q61474 1-362)
Test: nsRBNS (natural sequence RNA bind-n-seq); RBNS binding buffer (assumed for nsRBNS): 25 mM Tris pH 7.5, 150 mM KCl, 3 mM MgCl2, 0.01% Triton X-100, 500 ug/ml BSA, 20 U/ml SUPERase-In, 4 C; UNK is unkempt and MSI1 is Musashi-1; names of the RNAs are library labels; protein concentration not given here; high values mean tight binding

Chain of UniProt Q61474 (Q61474 whole entry): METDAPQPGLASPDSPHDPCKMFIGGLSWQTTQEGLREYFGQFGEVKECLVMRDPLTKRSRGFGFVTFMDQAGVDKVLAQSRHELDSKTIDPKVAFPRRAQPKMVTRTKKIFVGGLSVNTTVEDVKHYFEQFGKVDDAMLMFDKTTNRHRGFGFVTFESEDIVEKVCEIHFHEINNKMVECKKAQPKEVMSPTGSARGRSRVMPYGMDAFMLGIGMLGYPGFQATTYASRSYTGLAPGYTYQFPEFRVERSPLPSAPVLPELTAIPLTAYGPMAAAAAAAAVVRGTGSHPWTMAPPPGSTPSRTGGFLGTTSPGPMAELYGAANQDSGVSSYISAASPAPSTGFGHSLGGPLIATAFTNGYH

Compared with B1, B2 is lower in binding signal: 0.958 enrichment R for the first, 0.53 enrichment R for the second.

Going from B3 to B4, the binding signal falls from 5.59 enrichment R to 0.421 enrichment R.

Going from B5 to B6, the binding signal rises from 0.249 enrichment R to 0.54 enrichment R.

First: B7
Second: B8
The binding signal of the first is lower: 0.47 enrichment R for the first, 0.721 enrichment R for the second.

Going from B9 to B10, the binding signal falls from 0.582 enrichment R to 0.579 enrichment R.

Compared with B11, B12 is lower in binding signal: 2.63 enrichment R for the first, 0.378 enrichment R for the second.

Going from B13 to B14, the binding signal falls from 13.8 enrichment R to 0.48 enrichment R.
